Source: US6919377B2, “Cyclohexylamine derivative as subtype selective NMDA receptor antagonists” (Warner Lambert Company LLC, priority 2000, dated 2005)

Question: Which melting point (free base) does the source give for Oc1ccc([C@H]2CC[C@H](NCC#Cc3ccccc3)CC2)cc1 (as salt: maleate) [Example 23, Trans-4-[4-(3-phenylprop-2-ynylamino)cyclohexyl]phenol] here?
Answer: 131 to 136 °C

Question: And the melting point (maleate salt)?
Answer: 171 to 179 °C

Counter-ions that a name gives are not always drawn. Like-named read-outs stand apart in the source and are kept apart here. Some values that stand alone complete this part of the results.
